44 sequences from the supplement of paper PMC11417369 can be followed below.

Some of the results follow.

This assay has as its system PfAP2-HC AP2 domain (GST-tagged). In words: gcPBM binding intensity (ln(normalized median fluorescence intensity)); higher = stronger DNA binding. The method in brief:
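The highest Masliner-normalised natural-log median intensity across replicate spots of either probe orientation is reported as binding intensity. GST-tagged P. falciparum DNA-binding domains expressed in E. coli were applied for 1 h to an Agilent 4 × 180k array of primer-extended double-stranded 36-bp intergenic genomic probes plus negative controls, and bound protein was detected with Alexa488 anti-GST antibody and scanned at 488 nm.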
For the sequence “CATAAATACAGTAACACACACAAAAAAATATGAATA [CACACA_site6066]”, the “gcPBM binding intensity (ln)” value is 10.9.
Consider “ATATATATATTATATGCACACTAATAAGACTATTTA [CACACA_site5880]”, for which the “gcPBM binding intensity (ln)” value stood at 9.67.
On to “GTAGTCCAAAAAAAGCGTACACAGAAAAAAAAAAAA [XGTACX_site4273]”, for which the “gcPBM binding intensity (ln)” value came out at 9.61.
With “ACATTGCACCCGTGCACACATAGAAAAATAATTCTT [CACACA_site409]”, the “gcPBM binding intensity (ln)” value worked out at 9.69.
Take ATAACAAAAATCCTTGTGCACTATTTTAATAGAGTC: the “gcPBM binding intensity (ln)” value was 9.72.
For the sequence “CATTATGATTAAATATGTACATATTATTATATAAAT [XGTACX_site2477]”, the “gcPBM binding intensity (ln)” value was 9.47.
As for “TACATCTTACTACTTATAATATAATATAGTATGAAT [TGCATGCA_negctrl_site8]”, the “gcPBM binding intensity (ln)” value came to 9.39.
The same measure for TACAATATATTTATAGTGCATATTACTTTTAACTTT: 9.7; for “TCGTAATAATATAAATGTACTTTATTAATTAAAAGA [XGTACX_site3416]”: 9.51; for “AAAAAAAATTTTATCTGTACACATTTTTTTCTTTTT [XGTACX_site4229]”: 9.73.
The same measure for “ATATAATTTATGTGCACACACTCCTATTTTTAGCTT [CACACA_site50]”: 10.2.
Consider “AAAAAGTAAAAGAAAGCACACACACCGGTATATATG [CACACA_site9281]”, for which the “gcPBM binding intensity (ln)” value was 10.5.
In the case of “AACAAAATAAGACACACACACAAATGTACCTATATA [CACACA_site7189]”, the “gcPBM binding intensity (ln)” value turned out to be 10.4.
Regarding “TCTTTTTTAAATAAAAGTACAAAAAAAAATAAAAAA [XGTACX_site2670]”, the “gcPBM binding intensity (ln)” value is 9.5.
“AAAAAAAATATGAAAACACACATATATAAATAAATA [CACACA_site113]”: the “gcPBM binding intensity (ln)” value amounted to 10.
On to “TAATATATATGTATGGCACACACGGATAAATATATA [CACACA_site930]”, for which the “gcPBM binding intensity (ln)” value was found to be 10.1.
CATGCCTTTAAAAAGGTGCAAACATTTTCACAAACA: the “gcPBM binding intensity (ln)” value is 9.53.
The same measure for “AACGGGTAATGCACAAAAAAAAAAAAATAAAATAAA [TGCATGCA_negctrl_site474]”: 9.65.
Consider “AAATTATTTTGTTATCATTATATATAGATTGAATAT [XGTACX_negctrl_site165]”, for which the “gcPBM binding intensity (ln)” value turned out to be 9.5.
For “TTCTTTTAAATTAGCTGTACGGTTTTCTACATGCAT [XGTACX_site356]”, the “gcPBM binding intensity (ln)” value was 9.99.
On to “CAAACAAATATATGTTGTACTTATTATATATACATA [XGTACX_site2998]”, for which the “gcPBM binding intensity (ln)” value was 9.56.
In the case of “TTATCATATGTATGCATACACACAAAAAATTATATA [CACACA_site397]”, the “gcPBM binding intensity (ln)” value is 9.78.
On to “ATGTAATTCTTTTACTTTTTTTTTTTTTTTTTTTTT [CACACA_negctrl_site979]”, for which the “gcPBM binding intensity (ln)” value was 9.23.
As to “ATAAATGAGCCATATTAAATCCGTTACACGGGTGTG [CACACA_negctrl_site1368]”, the “gcPBM binding intensity (ln)” value turned out to be 9.51.
Turning to “CAGACAATAAAGAAGTGTACACATATATCAATAAAA [XGTACX_site4515]”, the “gcPBM binding intensity (ln)” value was 9.88.
As for “CTTTATCTTCTCACGAAGATTGAATAAGGTATTCTT [XGTACX_negctrl_site307]”, the “gcPBM binding intensity (ln)” value was 9.47.
As for “AAAAAAAAATACCTACGTACATATATATATTATATA [XGTACX_site3983]”, the “gcPBM binding intensity (ln)” value was found to be 9.72.
For “TTAATGCACTTTATTACACACACTAGTTCATTACCT [CACACA_site2294]”, the “gcPBM binding intensity (ln)” value turned out to be 10.2.
Consider “AGAGAGAGAAATACAAGTACATGTGAAACCAATCTA [XGTACX_site2767]”, for which the “gcPBM binding intensity (ln)” value stood at 9.86.
Under “AAAAAATAAAAAAAAACACACACATACAAGCATATA [CACACA_site8451]” stands 11.1; under “TTCAACATAATATGCACACAAAAATTATGGAACGAA [CACACA_site2111]”, 9.99; under “AAAAAAAAAAAAATTGCACACAAAAAAAAAAAAAAA [CACACA_site8644]”, 9.64.
As to “ATATAATAGTATATATGTACATATATTTAAATACTA [XGTACX_site1135]”, the “gcPBM binding intensity (ln)” value is 9.75.
On to “TATATTATAATTTGAAGTACATTTTAAATTAACTAA [XGTACX_site1013]”, for which the “gcPBM binding intensity (ln)” value amounted to 9.29.
Turning to “ATATATGTATATATTTGTACATATAATATTTTTTAA [XGTACX_site6345]”, the “gcPBM binding intensity (ln)” value turned out to be 9.67.
For the sequence “ATTTGTAATTTATTCAAACACACAATTTGGACCTTT [CACACA_site1062]”, the “gcPBM binding intensity (ln)” value worked out at 9.68.
Turning to “TAATTAAGCATAAATATAATTTTATATTTTATTTCC [XGTACX_negctrl_site321]”, the “gcPBM binding intensity (ln)” value is 9.28.
Turning to “TAACATAGCAATGTTTCACACACAAGAAAAAATACA [CACACA_site8747]”, the “gcPBM binding intensity (ln)” value is 10.2.
“TGCAGTCTGGAGAAAAGTACATAGTATCTGGTAGCT [XGTACX_site2547]”: the “gcPBM binding intensity (ln)” value worked out at 9.5.
Consider “TTTGTGTGTGCGTGTGCATGTTGTTTTTTTCTATAA [TGCATGCA_site17]”, for which the “gcPBM binding intensity (ln)” value was determined as 11.7.
The same measure for “AATATAATAACTTATTGTACGAAATTATATCACCTT [XGTACX_site7883]”: 9.64; for “TATTCACATACAGAAACACACACATATATATAAATT [CACACA_site9232]”: 10.1; for “TTATAATATATATGTAGTACTGTTTTTTTCTATTTT [XGTACX_site7749]”: 9.76.
With “TGTACAAATATGTACACACACACATATATATATATA [CACACA_site584]”, the “gcPBM binding intensity (ln)” value is 10.3.
